Common to all, as to experiment: Viability of human cancer cell lines after 72 h of drug (GDSC screen)
Compound in experiment [1]: CO[C@@]12[C@H](COC(N)=O)C3=C(C(=O)C(C)=C(N)C3=O)N1C[C@@H]1N[C@@H]12 [Mitomycin C]
The settings on record: top dose 16 µM. The protocol:
(§1)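 Human cancer cell lines in 384-well plates, medium with 10% serum, drug for 72 h over a 256-fold dose range (nine 2-fold or five 4-fold steps up to the top dose). Adherent lines were fixed and stained with the nucleic acid dye Syto60, suspension lines read with resazurin; signal relative to control wells, capped at 0 and 100%. One two-parameter sigmoid per drug and line, fitted in a mixed model over all curves with the slope shared within a line.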

Compound in experiment [2]: O=C(O)CNC(=O)c1c(O)c2ccccc2n(Cc2ccccc2)c1=O [IOX2]
The settings on record: top dose 0.1 µM; top dose inferred. The protocol: as §1

Compound in experiment [3]: CC[C@H](CO)Nc1nc(NCc2ccccc2)c2ncn(C(C)C)c2n1 [Roscovitine]
To be noted: top dose 16 µM; top dose inferred. The method, then:
as §1

Compound in experiment [4]: COc1cc(Nc2c(C#N)cnc3cc(OCCCN4CCN(C)CC4)c(OC)cc23)c(Cl)cc1Cl [Bosutinib]
To be noted: top dose 2 µM. The protocol:
as §1

Compound in experiment [5]: CO[C@@H]1[C@H](N(C)C(=O)c2ccccc2)C[C@H]2O[C@]1(C)n1c3ccccc3c3c4c(c5c6ccccc6n2c5c31)C(=O)NC4 [Midostaurin]
To be noted: top dose 0.512 µM; top dose inferred. The protocol:
as §1

Compound in experiment [6]: Cc1ccc(C(=O)Nc2cccc(C(F)(F)F)c2)cc1Nc1nc(-c2cccnc2)nc2c1cnn2C [NVP-BHG712]
The settings on record: top dose 10.24 µM; top dose inferred. The method, then: as §1

Lines with a small IC50 respond at low doses; a fit beyond the top or the lowest dose is shown as a bound at that dose. AUC, from the same fit, is the share of area under the viability curve across the 256-fold dose range; values near 1 show little effect. For part of these data: Where the top dose is marked as inferred, it was derived from the fitted curves, not read from the paper. Where only a bound is given, the exact number is not on record here.

By IC50 is commonly meant the concentration needed to halve the response being measured.

Turning to EW-16 (Ewing sarcoma, adherent), the AUC is 0.065 in experiment [1]; 0.98 in experiment [2]; 0.942 in experiment [3]; 0.79 in experiment [4]; 0.824 in experiment [5]; 0.964 in experiment [6]. The IC50 in experiment [1] was < 0.0625 µM; in experiment [2] it was > 0.1 µM; in experiment [3], > 16 µM; in experiment [4] it was 0.932 µM; in experiment [5], 0.322 µM; in experiment [6] it was > 10.2 µM.
Consider “CESS (acute myeloid leukaemia, suspension)”, for which the AUC in experiment [1] is 0.239; in experiment [2], 0.99; in experiment [3] it was 0.902; in experiment [4], 0.991; in experiment [5], 0.911; in experiment [6] it was 0.418. Besides, the concentration for half-maximal inhibition (IC50) in experiment [1] is 0.202 µM; in experiment [2] it was > 0.1 µM; in experiment [3], 15.7 µM; in experiment [4], > 2 µM; in experiment [5], > 0.512 µM; in experiment [6] it was 0.396 µM.
With CL-11 (large intestine, adherent), the AUC was determined as 0.776 in experiment [1]; 0.968 in experiment [2]; 0.983 in experiment [3]; 0.984 in experiment [4]; 0.983 in experiment [5]; 0.941 in experiment [6]. Also, the half-maximal inhibitory concentration (IC50) in experiment [1] was 7.18 µM; in experiment [2], > 0.1 µM; in experiment [3], > 16 µM; in experiment [4], > 2 µM; in experiment [5] it was > 0.512 µM; in experiment [6], > 10.2 µM.
Consider “NCI-H1395 (lung adenocarcinoma, adherent)”, for which the AUC in experiment [1] stood at 0.609; in experiment [2] it was 0.97; in experiment [3] it was 0.947; in experiment [4], 0.956; in experiment [5], 0.978; in experiment [6] it was 0.933. Further, the 50% inhibitory concentration (IC50) is 2.19 µM in experiment [1]; > 0.1 µM in experiment [2]; > 16 µM in experiment [3]; > 2 µM in experiment [4]; > 0.512 µM in experiment [5]; > 10.2 µM in experiment [6].
For the cell line RKO (large intestine, adherent), the AUC in experiment [1] worked out at 0.18; in experiment [2], 0.973; in experiment [3] it was 0.913; in experiment [4], 0.979; in experiment [5], 0.879; in experiment [6], 0.754. The concentration for half-maximal inhibition (IC50) in experiment [1] is 0.12 µM; in experiment [2], > 0.1 µM; in experiment [3], > 16 µM; in experiment [4] it was > 2 µM; in experiment [5], 0.46 µM; in experiment [6] it was 3.23 µM.
Turning to “NCI-H1092 (small cell lung carcinoma, suspension)”, the AUC worked out at 0.627 in experiment [1]; 0.983 in experiment [2]; 0.954 in experiment [3]; 0.99 in experiment [4]; 0.976 in experiment [5]; 0.959 in experiment [6]. For the same cell line, the half-maximal inhibitory concentration (IC50) in experiment [1] is 2.24 µM; in experiment [2] it was > 0.1 µM; in experiment [3], > 16 µM; in experiment [4], > 2 µM; in experiment [5], > 0.512 µM; in experiment [6] it was > 10.2 µM.
In the case of SW684 (fibrosarcoma, adherent), the AUC came out at 0.933 in experiment [1]; 0.97 in experiment [2]; 0.951 in experiment [3]; 0.983 in experiment [4]; 0.939 in experiment [5]; 0.983 in experiment [6]. For the same cell line, the half-maximal inhibitory concentration (IC50) was > 16 µM in experiment [1]; > 0.1 µM in experiment [2]; > 16 µM in experiment [3]; > 2 µM in experiment [4]; > 0.512 µM in experiment [5]; > 10.2 µM in experiment [6].

The record behind these values is the supplement of paper PMC4967469.
